Assay results from PubChem BioAssay AID493014 (National Center for Advancing Translational Sciences (NCATS), 2011).
The whole screen tested about 340,000 compounds, of which about 170 (0.05%) were called active. Not shown: some 26% with an inconclusive outcome. Calls come from the whole dose curve; as a rule, active = well fitted inhibition curve with a large enough effect in the signal ratio, with a control signal flat (not every such curve was filed as active); inconclusive = small, poorly fitted or top-dose-only effect, or effect the other way, or a change in a side signal; inactive = flat fitted curve, though single readings scatter; the % refers to the signal ratio. This is a selection; strong and weak results do not stand in their true shares.

test: qHTS Assay to Find Inhibitors of Chronic Active B-Cell Receptor Signaling; settings: ABC-DLBCL IkBa-CBG/CBR reporter, luminescence ratio (green luciferase fused to IkBa over red control in TMD8 lymphoma cells), 4 h; series mostly up to 46.1 µM; activity change, negative = inhibition: at the top concentration;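 for activity change, negative = inhibition: plate controls were basal doxycycline-induced cells for no effect and cells given 10 µM MG132 for full effect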
How it was run: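 Compounds up to 46 uM were incubated four hours with TMD8 cells whose green CBG68 luciferase is fused to IkappaBalpha; red CBR luminescence normalised the signal, and concentration-effect curves were fitted to fusion, red and ratio data.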
Potency is the fitted concentration of half-maximal effect.

| Structure (SMILES) | Potency | activity change, negative = inhibition |
| --- | --- | --- |
| Cc1nn(CCC(=O)NNC(=S)NCC(C)C)c(C)c1Br | active: 16.4 µM |  |
| CCc1ccc(/C=C2/SC(=S)N(CCCC(=O)Nc3ccccc3C(=O)O)C2=O)cc1 |  | inactive: -8.06% |
| CN1CCN(C(=O)CCCOc2cc(=O)n(C)c3ccccc23)CC1 | active: 25.9 µM |  |
| O=C(O)C1CCCCC1C(=O)NCCc1ccccc1 (stereo not given) |  | inactive: 17.6% |
| O=C(C[C@H]1C/C=C\CC[C@@H](Cc2ccc(F)cc2)C(=O)OC[C@H]2CCCN2C1=O)N[C@@H](CO)Cc1ccccc1 |  | inactive: -0.609% |
| C=CC[C@@H](CC(=O)N[C@@H](CO)Cc1ccccc1)C(=O)N[C@@H](COC(=O)[C@@H](CC=C)Cc1ccc(F)cc1)Cc1c[nH]c2ccccc12 |  | inactive: -2.33% |
| O=C(Nc1ccc(F)c(F)c1)c1ccc(F)c(S(=O)(=O)N2CCC3(CC2)OCCO3)c1 |  | inactive: 0.232% |
| CCN1C(N(C)CCc2cccs2)=N[C@@H](c2ccccc2)C(C(=O)OC)=C1C |  | inactive: 10.7% |
| CC(C)(C)OC(=O)C[C@@H]1C/C=C\C[C@H](CC(=O)N[C@H](CO)Cc2ccccc2)C(=O)N2CCC[C@H]2COC1=O |  | inactive: 1.62% |
| O=C(Cc1ccc(-n2c(=O)c3ccccc3n(Cc3ccc(F)cc3)c2=O)cc1)NCC1CCCO1 (stereo not given) | active: 8.2 µM |  |
| C[C@@H](NC(=O)c1nc[nH]c1C(=O)NCCCCCNC(=O)OC(C)(C)C)c1ccccc1 |  | inactive: -5.71% |
| O=C(N/C(=C/c1cccs1)C(=O)N1CCOCC1)c1ccco1 |  | inactive: 2.17% |
| C[C@H](NC(=O)C1(c2ccccc2)CCN(C(=O)[C@H]2CSCN2C(=O)OC(C)(C)C)CC1)C(=O)O |  | inactive: -0.658% |
| COc1cc(N)c(Cl)cc1C(=O)N[C@H]1CCN(CCCOc2ccc(F)cc2)C[C@H]1OC |  | inactive: -19% |
| COc1ccc(C(=O)OCC#CCSc2nnc(-c3cccc4ccccc34)o2)cc1 |  | inactive: 10.8% |
| O=C(NCC1CCCO1)/C(=C\c1ccc(Cl)cc1)NC(=O)c1ccccc1 (stereo not given) |  | inactive: -0.198% |
| O=C(Nc1cccc(Cl)c1Cl)c1cc(S(=O)(=O)NCCc2ccccc2)ccc1F |  | inactive: -0.223% |
| CC1(C)O[C@@H]2C[C@H]3[C@@H]4C[C@H](F)C5=CC(=O)C=C[C@]5(C)[C@H]4[C@@H](O)C[C@]3(C)[C@]2(C(=O)CO)O1 |  | inactive: -22.5% |

| Structure (SMILES) | Potency | activity change, negative = inhibition |
| --- | --- | --- |
| COc1cc(/C=C(\C#N)c2nc3ccccc3[nH]2)ccc1OC(=O)c1ccco1 |  | inactive: -0.0793% |
| CCCC/C(O)=C/c1nc2ccccc2[nH]c1=O | active: 14.6 µM |  |
| Oc1cccc2c(-c3nn[nH]n3)ccnc12 |  | inactive: 8.59% |
| COC(C[C@@H]1O[C@@H]1[C@H](O)[C@H](C)OCc1ccccc1)OC |  | inactive: 1.28% |
| C=CCC[C@@H](Cc1ccc(F)cc1)C(=O)OC[C@H](Cc1c[nH]c2ccccc12)NC(=O)[C@@H](CC=C)CC(=O)N[C@@H](CO)Cc1ccccc1 |  | inactive: -2.94% |
| Cc1nc2nc[nH]n2c(=O)c1NC(=O)CC12CC3CC(CC(C3)C1)C2 |  | inactive: 0.589% |
| Cc1cccc(N2CCN(S(=O)(=O)c3c(C)[nH]c(=O)[nH]c3=O)CC2)c1C |  | inactive: 17% |
| CN(Cc1ccco1)c1ncnc2ccc(-c3ccc4c(ccn4C)c3)cc12 | active: 6.51 µM |  |
| COc1ccc(-c2cc(=O)c3c(OC)c(OC)c(OC)c(OC)c3o2)cc1OC |  | inactive: -11.9% |
| C[C@H]1COC(=O)[C@@H](Cc2ccc(F)cc2)C/C=C\C[C@H](CC(=O)NCCO)C(=O)N1 |  | inactive: -1.89% |
| COc1ccccc1NC(=O)CCN1C(=O)/C(=C/c2cc(OC)c(OC)c(OC)c2)SC1=S |  | inactive: 2.22% |
| C[C@H]1CN([C@@H](C)CO)C(=O)c2cccc(NC(=O)C3CC3)c2O[C@H]1CN(C)CC1CCCCC1 |  | inactive: 1.23% |
| Cc1[nH][nH]c(=O)c1C(c1ccccc1[N+](=O)[O-])C(C#N)C#N (stereo not given) |  | inactive: 9.01% |
| NC1=NC[C@H](Cc2ccc(O)cc2)N1CCc1cc(C(F)(F)F)cc(C(F)(F)F)c1 |  | inactive: -4.49% |
| OCC[C@@H]1C[C@H](O)[C@@H](O)[C@@]2(OCc3ccccc32)O1 |  | inactive: -1.61% |
| O=C1NC[C@H](c2ccccc2)OC(=O)[C@H](Cc2ccc(F)cc2)C/C=C\C[C@@H]1CC(=O)N(CCO)Cc1ccccc1 |  | inactive: -0.26% |
| CCC(=O)N1c2ccccc2C(N(C(C)=O)c2ccccc2)CC1C (stereo not given) |  | inactive: -9.96% |
